Reference: the supplement of paper PMC3334620
Whole data set: some 33,000 sequences, median “E-score (-0.5 to 0.5)” near -0.036, cut for the highest 2% near 0.37. The list shows a part of the results.

target: T1, Yer064c (UniProt P40041); assay: PBM E-score (8-mer binding enrichment) (E-score (-0.5 to 0.5)); higher = stronger / more preferred TF binding; most listed sequences are background and not binding sites; conditions: protein concentration: 200 nM; construct: GST-full length
T1 sequence: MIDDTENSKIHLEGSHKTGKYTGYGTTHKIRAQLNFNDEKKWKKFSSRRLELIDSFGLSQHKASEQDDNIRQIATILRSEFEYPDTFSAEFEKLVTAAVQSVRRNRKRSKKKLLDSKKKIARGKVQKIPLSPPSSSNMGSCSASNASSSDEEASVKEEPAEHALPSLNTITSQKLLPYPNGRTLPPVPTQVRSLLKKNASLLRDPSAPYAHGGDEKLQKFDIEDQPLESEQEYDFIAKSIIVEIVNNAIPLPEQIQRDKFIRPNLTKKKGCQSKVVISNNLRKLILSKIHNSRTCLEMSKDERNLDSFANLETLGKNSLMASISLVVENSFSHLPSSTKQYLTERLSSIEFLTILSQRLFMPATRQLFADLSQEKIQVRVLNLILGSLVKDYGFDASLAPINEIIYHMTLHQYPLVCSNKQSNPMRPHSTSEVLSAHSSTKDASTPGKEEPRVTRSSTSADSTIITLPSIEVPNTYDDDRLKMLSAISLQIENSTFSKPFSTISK
Procedure, shortened: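 Detection of bound protein used fluorescent anti-GST, with scans normalised by masliner. The proteins were GST-tagged yeast transcription factors applied at about 100-200 nM to universal all-10-mer Agilent arrays made double-stranded by primer extension. Each ungapped eight-base word, pooled with its reverse complement, was scored with an E-score from the Universal PBM Analysis Suite.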

Going from GGTTCATA to CCCCCCGG, the “PBM E-score” value falls from -0.0107 to -0.258.

Going from AATCAAAC to CCCTGTGA, the “PBM E-score” value falls from 0.236 to 0.133.

Compared with CGAACAGC, CCTGTTAC is lower in “PBM E-score” value: -0.134 for the first, -0.158 for the second.

First: CTGTGAAG
Second: GTTGCTAA
The “PBM E-score” value of the first is higher: -0.0231 for the first, -0.138 for the second.

Going from CGATCTAC to CTATATAC, the “PBM E-score” value rises from -0.141 to 0.0403.

Going from CCAACAGG to ACCTGATA, the “PBM E-score” value rises from -0.346 to -0.0984.

Going from CCCGTTCA to AAAGGGGG, the “PBM E-score” value falls from -0.213 to -0.377.

Going from TTGACAAA to GTGGCTAA, the “PBM E-score” value rises from 0.028 to 0.26.

Going from GGTACTAA to ACAATCGT, the “PBM E-score” value rises from -0.0535 to -0.00128.

First: ACGATCCC
Second: CCAAGCGG
The “PBM E-score” value of the first is lower: -0.157 for the first, -0.109 for the second.

First: AGAGCAAG
Second: ACACGAGT
The “PBM E-score” value of the first is lower: 0.00177 for the first, 0.193 for the second.

First: CGTCCATA
Second: GCGGTATA
The “PBM E-score” value of the first is higher: -0.0406 for the first, -0.0917 for the second.

Going from GGCCACCA to CGGAATTA, the “PBM E-score” value rises from -0.109 to -0.0336.

First: CTTATCAC
Second: GGATGCGA
The “PBM E-score” value of the first is higher: -0.00234 for the first, -0.117 for the second.

Compared with ATTCCATC, ACCCTATA is lower in “PBM E-score” value: 0.0991 for the first, -0.137 for the second.

First: AGGAAACT
Second: AAAGATAA
The “PBM E-score” value of the first is lower: -0.178 for the first, 0.0173 for the second.

Compared with CGGGCGGA, GGCCTTAC is lower in “PBM E-score” value: -0.203 for the first, -0.206 for the second.

First: CAGGACCG
Second: AAATGATC
The “PBM E-score” value of the first is lower: -0.153 for the first, 0.121 for the second.

Going from CGGGCTCC to CTACAGGA, the “PBM E-score” value rises from -0.307 to 0.0425.

Compared with ATGCTTCG, CGTGTGTC is lower in “PBM E-score” value: -0.0134 for the first, -0.0746 for the second.

Compared with GCCAATTA, ACGTTTAG is lower in “PBM E-score” value: 0.0589 for the first, -0.00153 for the second.

Compared with ACAGGATC, CTCACGTC is higher in “PBM E-score” value: -0.161 for the first, 0.0109 for the second.

Going from GAAACGAA to AAAATATG, the “PBM E-score” value falls from 0.0935 to 0.0603.

First: CGGGACTA
Second: CCACATGA
The “PBM E-score” value of the first is lower: 0.168 for the first, 0.169 for the second.

First: GAAGTGAC
Second: CCCAATTA
The “PBM E-score” value of the first is higher: 0.197 for the first, -0.0776 for the second.

Compared with CGAAGGGC, CGACCTCG is higher in “PBM E-score” value: -0.337 for the first, 0.0278 for the second.

Going from ACAATAAT to TCACGAGA, the “PBM E-score” value rises from 0.127 to 0.199.

First: ACTGAAGC
Second: CACTCCTG
The “PBM E-score” value of the first is higher: 0.132 for the first, -0.0809 for the second.

Going from GCACCAGA to CCGCTTTC, the “PBM E-score” value rises from -0.283 to -0.0764.

Going from AGCCGCAA to GGGCTTCA, the “PBM E-score” value rises from -0.187 to -0.168.

First: ATAGTCAG
Second: CAAACGCG
The “PBM E-score” value of the first is higher: 0.454 for the first, -0.0471 for the second.

Going from ATTACCTC to AACGCGAC, the “PBM E-score” value rises from -0.0785 to 0.0371.

Compared with AATTAACG, GCGTTAGA is lower in “PBM E-score” value: -0.0364 for the first, -0.206 for the second.

Going from ATGCAAAG to AATGCACT, the “PBM E-score” value rises from -0.0619 to -0.0332.

First: TGCCGACA
Second: CCATTGTA
The “PBM E-score” value of the first is lower: -0.111 for the first, 0.005 for the second.

First: TACAAGCA
Second: CCCGAAAC
The “PBM E-score” value of the first is higher: -0.0715 for the first, -0.168 for the second.

Going from ACGTATAT to ATCTGGTC, the “PBM E-score” value rises from -0.162 to 0.00852.

Compared with GACAAACA, TGATGCAA is lower in “PBM E-score” value: 0.0666 for the first, -0.0847 for the second.

Going from ACCCGGAA to CAAAATTC, the “PBM E-score” value rises from -0.161 to 0.0523.

Going from CTGAAGGC to GTCTAGAA, the “PBM E-score” value rises from -0.102 to 0.0656.

First: TATTTAGA
Second: CATCCCCG
The “PBM E-score” value of the first is higher: 0.202 for the first, -0.189 for the second.

First: ATGATAGC
Second: AAGAATTA
The “PBM E-score” value of the first is lower: -0.167 for the first, 0.0637 for the second.

First: AAAGCCCA
Second: GAAAGTCA
The “PBM E-score” value of the first is lower: -0.13 for the first, 0.428 for the second.

Compared with GCTTACGA, ATTCTAAC is higher in “PBM E-score” value: -0.101 for the first, 0.0847 for the second.

First: GTAATAGA
Second: CGTCTCAA
The “PBM E-score” value of the first is higher: -0.0133 for the first, -0.03 for the second.

Going from AAAGAAAA to CCCCTTAC, the “PBM E-score” value falls from 0.155 to -0.134.

First: AGTATACG
Second: AATTTACA
The “PBM E-score” value of the first is higher: 0.0693 for the first, 0.0293 for the second.

Compared with ATAACATC, CAATAGCA is lower in “PBM E-score” value: -0.0522 for the first, -0.226 for the second.

First: ACTACGCC
Second: ATGGTATA
The “PBM E-score” value of the first is higher: 0.06 for the first, -0.0727 for the second.

First: GGAAAGAA
Second: TGGCGCCA
The “PBM E-score” value of the first is higher: -0.261 for the first, -0.339 for the second.

Going from ACTGGGTC to CCTGGGAC, the “PBM E-score” value falls from -0.135 to -0.363.

First: TGCGCCAA
Second: CGGGGTCA
The “PBM E-score” value of the first is lower: -0.237 for the first, -0.114 for the second.

First: AACCTCTG
Second: AACAAGTA
The “PBM E-score” value of the first is lower: -0.231 for the first, -0.174 for the second.

Going from CCCTCCCA to CTTTCTTA, the “PBM E-score” value rises from -0.298 to 0.00049.

Compared with AAGATCCA, GTTCAATA is higher in “PBM E-score” value: -0.183 for the first, 0.131 for the second.

Compared with CTTCCGGA, GCGTAATA is higher in “PBM E-score” value: 0.0611 for the first, 0.122 for the second.

Going from GACTCGGC to AGTACGCG, the “PBM E-score” value falls from 0.352 to 0.123.

First: TATCCCCA
Second: GAATAGTC
The “PBM E-score” value of the first is lower: -0.25 for the first, 0.38 for the second.

First: CAAAAGTC
Second: ATAGCTCC
The “PBM E-score” value of the first is higher: 0.186 for the first, -0.0199 for the second.

Compared with CACTCCAA, ATGGGAAA is lower in “PBM E-score” value: -0.0694 for the first, -0.139 for the second.

Compared with ACCATAGT, GTGTCTTA is lower in “PBM E-score” value: 0.249 for the first, 0.0795 for the second.

Compared with GCTATACA, GTAAACAA is higher in “PBM E-score” value: -0.0322 for the first, 0.149 for the second.

Compared with CGCCATCC, AGTTTCAA is higher in “PBM E-score” value: -0.236 for the first, 0.104 for the second.

First: CTCAATGC
Second: ATGTTGAA
The “PBM E-score” value of the first is higher: 0.0539 for the first, -0.0376 for the second.

Going from AACGATGC to AAACGAGT, the “PBM E-score” value rises from -0.186 to 0.273.

Compared with AGCTCCTC, CCGTGCCC is lower in “PBM E-score” value: -0.159 for the first, -0.27 for the second.

First: GACATTAA
Second: CATGAGGA
The “PBM E-score” value of the first is lower: -0.188 for the first, 0.0401 for the second.

Compared with CCCCACGA, TCCACGAA is lower in “PBM E-score” value: -0.00086 for the first, -0.0132 for the second.

Compared with TACAGCTA, CGACTTGC is higher in “PBM E-score” value: -0.0889 for the first, 0.111 for the second.

Compared with ACGCAAAT, ACAATGAT is higher in “PBM E-score” value: -0.254 for the first, 0.201 for the second.

Compared with GTGAGGAA, CGTGAAAC is lower in “PBM E-score” value: -0.00204 for the first, -0.122 for the second.

First: TCGGGCAA
Second: GTTGCGAA
The “PBM E-score” value of the first is lower: -0.0273 for the first, -0.0096 for the second.

Going from AGACAGCG to GTCGGTAA, the “PBM E-score” value falls from -0.0386 to -0.0576.

Compared with CGCACGGC, ATATAAAC is higher in “PBM E-score” value: -0.205 for the first, 0.0726 for the second.

Going from GGGTTTAA to AGTCGGCC, the “PBM E-score” value rises from -0.142 to 0.322.

Compared with CTTACCAC, AATAACCA is higher in “PBM E-score” value: -0.0371 for the first, 0.144 for the second.

Going from AATACAAC to GAGGAATC, the “PBM E-score” value rises from -0.0909 to 0.216.

Compared with ATGATTAC, AAATAAAA is lower in “PBM E-score” value: 0.472 for the first, -0.018 for the second.

Compared with AGCCAGTA, ACATTCAG is lower in “PBM E-score” value: -0.134 for the first, -0.149 for the second.

Going from TAGATATA to AAAATCAT, the “PBM E-score” value rises from -0.00404 to 0.354.

Compared with ATGTCCTG, ACCTAGCT is higher in “PBM E-score” value: -0.129 for the first, -0.036 for the second.

Compared with AATGGAGT, GATCTTTA is lower in “PBM E-score” value: 0.151 for the first, 0.0459 for the second.

Going from AGGTCTTC to ATTGGATG, the “PBM E-score” value rises from -0.249 to -0.062.

Going from GACCACCA to AATTTCTA, the “PBM E-score” value rises from -0.0392 to -5e-05.

First: GTGCCCCA
Second: AAACCCGG
The “PBM E-score” value of the first is higher: -0.155 for the first, -0.164 for the second.

Going from TCAGACAA to GGGCGATA, the “PBM E-score” value falls from 0.0923 to -0.242.
